According to the supplement of paper PMC9174493:
Some of the results follow. Single values of this set are uncertain. Values with irradiation are relative to irradiated vehicle.

Columns and labels:
A549-Dual [1] = experiment: NF-kB reporter (SEAP) activity, viability-corrected, relative to vehicle (fold change vs vehicle); higher = more activation of STING-IRF / NF-kB immune response reporter; conditions: 10 µM
A549-Dual [2] = experiment: ISRE reporter (Lucia luciferase) activity, viability-corrected, relative to vehicle (fold change vs vehicle); higher = more activation of STING-IRF / NF-kB immune response reporter; conditions: 10 µM
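For NF-kB reporter (SEAP) activity, viability-corrected, relative to vehicle in this document: viability correction based on the alamar blue assay, with concentrations leaving 10% survival or less dropped.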

Structure (SMILES) | NF-kB reporter (A549-Dual [1]; irradiation: 8 Gy/4 fr) | NF-kB reporter (A549-Dual [1]; irradiation: none) | ISRE reporter (A549-Dual [2]; irradiation: 8 Gy/4 fr) | ISRE reporter (A549-Dual [2]; irradiation: none)
Cc1ccsc1C(=CCCN1CCCC(C(=O)O)C1)c1sccc1C.Cl (stereo not drawn) [Tiagabine hydrochloride] | 0.729 | 1.19 | 0.851 | 0.955
O=C(O)c1cc(=O)c2ccccc2o1 [Chromocarb] | 1.4 | 0.737 | 1.38 | 0.78
NC(=O)C1CCC2CN1C(=O)N2OS(=O)(=O)[O-].[Na+] (stereo not drawn) [Avibactam sodium] | 0.695 | 0.938 | 0.629 | 0.823
CCOc1ccc(CC(CN(CCN(CC(=O)[O-])CC(=O)[O-])CC(=O)[O-])N(CC(=O)[O-])CC(=O)[O-])cc1.[Gd+3].[Na+].[Na+] (stereo not drawn) [Gadoxetate sodium] | 0.764 | 0.854 | 0.704 | 0.774
CCCCOCCOCCOCc1cc2c(cc1CCC)OCO2 [Piperonyl butoxide] | 0.882 | 0.727 | 0.664 | 0.456
CC(O)CO.CCOc1ccc(Cc2cc(C3OC(CO)C(O)C(O)C3O)ccc2Cl)cc1.O (stereo not drawn) [Dapagliflozin propanediol monohydrate] | 0.939 | 0.962 | 0.838 | 0.941
Brc1c(NC2=NCCN2)ccc2nccnc12 [Brimonidine] | 0.676 | 0.901 | 0.25 | 0.26
COCCCOc1ccnc(CS(=O)c2nc3ccccc3[nH]2)c1C (stereo not drawn) [Rabeprazole] | 0.371 | 0.722 | 0.142 | 0.335
Cc1c(C)c2c(c(C)c1O)CCC(C)(COc1ccc(CC3SC(=O)NC3=O)cc1)O2 (stereo not drawn) [Troglitazone (CS-045)] | 0.297 | 0.411 | 0.265 | 0.504
CC[N+](C)(C)c1cccc(O)c1.[Cl-] [Edrophonium chloride] | 0.781 | 0.951 | 0.68 | 0.731
Nc1ncnc2c1ncn2C1OC(CO)C(O)C1O (stereo not drawn) [Adenosine] | 0.953 | 0.998 | 0.923 | 0.795
CO/N=C(\C(=O)NC1C(=O)N2C(C(=O)[O-])=C(C[n+]3ccn4ncccc43)CSC12)c1nsc(N)n1.Cl (stereo not drawn) [Cefozopran hydrochloride] | 0.871 | 0.677 | 0.817 | 0.504
